Hit rate of the full screen: of about 310,000 compounds, about 14,000 (4.5%) showed an effect of 50% or more. The effect is printed as a negative number. The list shows a part of the results.
Each compound was assayed against human ether-à-go-go-related gene (hERG) potassium channel (human, UniProt Q12809) (assay: primary screen, population patch clamp on CHO cells stably expressing hERG).
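Also: peak tail current of the secondary pulse compared with the same well before compound.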

Sequence of human ether-à-go-go-related gene (hERG) potassium channel (Q12809 whole entry, looked up): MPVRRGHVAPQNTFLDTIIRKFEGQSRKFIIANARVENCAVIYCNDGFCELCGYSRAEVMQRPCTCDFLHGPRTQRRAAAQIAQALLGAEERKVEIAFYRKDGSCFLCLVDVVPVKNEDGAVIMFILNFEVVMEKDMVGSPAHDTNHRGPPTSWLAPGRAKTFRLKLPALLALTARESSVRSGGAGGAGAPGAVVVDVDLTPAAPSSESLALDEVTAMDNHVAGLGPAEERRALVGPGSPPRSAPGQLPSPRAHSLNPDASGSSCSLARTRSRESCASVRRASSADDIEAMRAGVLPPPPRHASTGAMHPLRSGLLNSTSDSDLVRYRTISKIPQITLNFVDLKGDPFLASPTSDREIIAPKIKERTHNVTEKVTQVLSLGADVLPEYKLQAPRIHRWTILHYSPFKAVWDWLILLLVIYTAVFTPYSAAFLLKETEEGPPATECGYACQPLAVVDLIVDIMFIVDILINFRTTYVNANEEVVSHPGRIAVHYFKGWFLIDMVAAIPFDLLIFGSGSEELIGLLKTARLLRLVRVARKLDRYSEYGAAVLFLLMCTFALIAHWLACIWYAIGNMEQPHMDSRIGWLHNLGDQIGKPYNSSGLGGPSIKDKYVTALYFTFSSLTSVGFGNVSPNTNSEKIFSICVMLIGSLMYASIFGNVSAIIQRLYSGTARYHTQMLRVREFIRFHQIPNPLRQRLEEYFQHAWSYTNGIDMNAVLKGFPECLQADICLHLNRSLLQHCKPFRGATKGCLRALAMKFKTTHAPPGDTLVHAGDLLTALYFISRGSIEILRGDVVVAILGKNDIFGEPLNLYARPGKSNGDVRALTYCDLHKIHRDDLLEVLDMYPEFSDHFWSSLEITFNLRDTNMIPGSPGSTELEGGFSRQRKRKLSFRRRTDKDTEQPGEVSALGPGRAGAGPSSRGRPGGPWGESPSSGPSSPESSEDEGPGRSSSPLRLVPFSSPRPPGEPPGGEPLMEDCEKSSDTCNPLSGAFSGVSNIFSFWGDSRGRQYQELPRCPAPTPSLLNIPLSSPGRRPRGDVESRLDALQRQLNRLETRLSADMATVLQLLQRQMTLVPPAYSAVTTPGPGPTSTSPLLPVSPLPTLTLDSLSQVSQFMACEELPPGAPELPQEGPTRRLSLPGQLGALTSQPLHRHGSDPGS

SMILES	hERG current change (%, negative = inhibition) at 10uM [%]
Cc1c(C(=O)Nc2nonc2-c2ccc(F)cc2)oc2ccc(F)cc12	-0.655
COC(=O)c1ccc(CNC(=O)c2ccc(COc3ccccc3)cc2)cc1	4.97
COc1cc(C(=O)Nn2cnnc2)ccc1OC(F)F	21.3
Cc1ccc(C(=O)N/C(=C/c2ccccc2)C(=O)NC(Cc2ccccc2)C(=O)O)cc1 (stereo not drawn)	8.07
COC(=O)c1ccccc1NC(=O)CN(CCc1ccccc1)S(C)(=O)=O	-20
CN1CC(C(=O)c2ccc([N+](=O)[O-])cc2)C(c2ccc(Cl)cc2)C1 (stereo not drawn)	-75.6
Nc1nc2nonc2nc1N	15.3
CCOC(=O)c1csc(Nc2nc3ccc(F)cc3s2)n1	-5.85
CSc1ccc(CN(C)CC(=O)NC(C)c2ccccc2)cc1 (stereo not drawn)	-83.9
Cc1ccccc1NC(=O)c1c(C)[nH]c(=S)c(C#N)c1-c1ccc(Cl)cc1	21.1
COc1ccc(-c2c(S(=O)(=O)c3ccccc3)cnn2-c2ccccc2)cc1	-2.43
COc1ccc2cc(S(=O)(=O)N3CCCC(C)C3)ccc2c1 (stereo not drawn)	6.14
COc1ccc(/C=N/NC(=O)CN2CCN(Cc3ccccc3)CC2)cc1Br	-68
Cc1cc(NC(=O)CSc2nc3ccccc3c(=O)n2Cc2ccc(F)cc2)no1	5.59
CCOC(=O)C(NC(C)=O)(NS(=O)(=O)c1ccccc1)C(F)(F)F (stereo not drawn)	16.2
CS(=O)(=O)c1ccc(Cl)c(NC(=O)CCN2C(=O)C3CC=CCC3C2=O)c1 (stereo not drawn)	-2.93
O=C(COc1ncnc2ccccc12)N1CCN(S(=O)(=O)c2ccccc2)CC1	4.3
Cc1nc2cccc(C(=O)NCc3ccccc3)c2o1	5.43
CC(C)C1Nc2c(C(=O)[O-])cccc2C(Nc2ccccc2C(=O)[O-])C1(C)C.[K+] (stereo not drawn)	-0.17
CCc1nnc(NC(=O)c2nn(-c3ccccc3)nc2C)s1	0.641
COc1ccc(C(C2C(=O)CC(C)(C)CC2=O)C2C(=O)CC(C)(C)CC2=O)cc1COCC(F)(F)F	-10.9
CN1C(=O)/C(=C/c2ccc(OCc3cccc(F)c3)cc2)NC1=S	19.6
CC(C)N(Cc1ccccc1)C(=O)c1ccc2c(c1)OCO2	1.14
CC(CCn1cccn1)NC(=O)c1cc(COc2ccc(F)cc2Cl)on1 (stereo not drawn)	-30.6
